{
  "source": "PubChem BioAssay AID1671188",
  "about": "(National Center for Advancing Translational Sciences (NCATS), 2021)",
  "note": "“And” between values parts separate entries of the source, which are not always exact repeats. Equal values may be shown once. Out of some 100,000 compounds screened, about 250 (0.25%) were called active. Inconclusive results, whose numbers are uncertain, are shown with a selection of clear calls. Calls follow the shape of the dose curve; as a rule, active = well fitted inhibition curve with a large enough effect; inconclusive = small, poorly fitted or top-dose-only effect; inactive = flat fitted curve, though single readings scatter. Where the call is inconclusive, the potency comes from a doubtful curve fit. Potency is read from the fitted curve at half-maximal effect; tags tell the direction and shape of the fitted curve.",
  "data": [
    {"target": "Alanine aminotransferase 2 (Homo sapiens) (UniProt Q8TD30)", "sequence (Q8TD30 whole entry, looked up)": "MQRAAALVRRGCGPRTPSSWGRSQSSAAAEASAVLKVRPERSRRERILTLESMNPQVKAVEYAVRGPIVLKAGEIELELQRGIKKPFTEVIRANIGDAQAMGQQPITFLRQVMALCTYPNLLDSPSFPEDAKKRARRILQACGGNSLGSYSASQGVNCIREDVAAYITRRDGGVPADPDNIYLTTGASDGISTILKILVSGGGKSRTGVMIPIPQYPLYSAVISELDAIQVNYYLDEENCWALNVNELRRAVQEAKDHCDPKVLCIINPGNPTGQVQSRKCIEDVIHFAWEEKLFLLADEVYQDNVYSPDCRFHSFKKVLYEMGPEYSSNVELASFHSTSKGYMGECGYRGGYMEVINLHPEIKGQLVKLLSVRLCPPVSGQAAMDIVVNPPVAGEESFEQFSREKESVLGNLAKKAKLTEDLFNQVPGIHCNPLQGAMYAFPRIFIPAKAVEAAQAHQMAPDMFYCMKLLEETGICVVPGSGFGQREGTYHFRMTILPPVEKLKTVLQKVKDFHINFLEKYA", "assay": "Primary qHTS assay for inhibitors of Glutamate pyruvate transaminase 2 (GPT2); also: nearly all actives have a fitted effect of over 60% in size", "conditions": "Recombinant GPT2, coupled pyruvate oxidase/HRP Amplex Red fluorescence; series mostly up to 57.7 µM", "summary_of_the_method": "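Recombinant GPT2 (10ng/uL) with 250uM a-KG and 2mM L-alanine, 30 min at room temperature, in HEPES pH 7.5 buffer. Pyruvate detected by pyruvate oxidase/HRP/Amplex Red fluorescence after 30 min in the dark; AOA (50uM) as positive control.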", "values": [
      {"smiles": "CC(C)(C)OC(=O)c1ncn2c1C(C)(C)Nc1ccccc1-2", "Potency": "inconclusive: 35.5 µM [inhibitor, single point]"},
      {"smiles": "CCOc1ccccc1CNC(=O)c1cc2cn(C(C)C)cc2s1", "Potency": "inconclusive: 39.8 µM [inhibitor, single point]"},
      {"smiles": "CN(C)Cc1nnc(C2CCN(C(=O)c3n[nH]c(=O)c4ccccc34)CC2)n1C", "Potency": "inconclusive: 8.91 µM [inhibitor, single point]"},
      {"smiles": "CC1(C(=O)NC2CCOCC2)CCCc2cnc(NCc3ccccc3)nc21", "note": "(stereo unspecified)", "Potency": "inconclusive: 8.91 µM [inhibitor, single point]"},
      {"smiles": "Cc1cccc(NC(=O)Cn2nc3n(c2=O)CCCC3)c1C", "Potency": "inconclusive: 6.31 µM [inhibitor, single point]"},
      {"smiles": "CC1(CNC(=O)c2ccccc2Cl)CCOCC1", "Potency": "inconclusive: 6.31 µM [inhibitor, single point]"},
      {"smiles": "O=C1c2c(nc(CNCc3cccc(F)c3)n2Cc2ccccc2)NCCN1Cc1cccc(Cl)c1", "Potency": "inactive"},
      {"smiles": "CN(C(=O)c1ccc2cccc(F)c2n1)C1CCCN(CCCc2ccccc2)C1", "note": "(stereo unspecified)", "Potency": "inconclusive: 3.16 µM [inhibitor, single point]"},
      {"smiles": "COc1ccc(C(=O)N2CCC3(CC2)NC(=O)N(Cc2ccc(F)cc2)C3=O)cc1OC", "Potency": "inactive"},
      {"smiles": "CN(Cc1cnc2ccccc2c1)C(=O)c1ccc(CCC(C)(C)O)cc1", "Potency": "inconclusive: 8.91 µM [inhibitor, single point]"},
      {"smiles": "CCCCCCCCCCCCOCCOCCOCCOCCOCCOCCOCCOCCOCCO", "Potency": "inconclusive: 39.8 µM [inhibitor, single point]"},
      {"smiles": "c1ccc(-c2nnc([C@H]3CCN(Cc4ccco4)C3)o2)cc1", "Potency": "inactive"},
      {"smiles": "Cc1ccc(CNC(=O)C2CCN(C(=O)c3nnn4c3COC(c3ccc(C)cc3)C4)CC2)cc1", "note": "(stereo unspecified)", "Potency": "inactive"},
      {"smiles": "COc1ccc(C(=O)N2CCCN(c3cc(-c4ccccc4)[nH]n3)CC2)c(OC)c1", "Potency": "inconclusive: 35.5 µM [inhibitor, single point]"},
      {"smiles": "COc1ccc(C2Cn3nnc(-c4nc(C(C)(C)C)no4)c3CO2)cc1", "note": "(stereo unspecified)", "Potency": "inconclusive: 39.8 µM [inhibitor, single point]"},
      {"smiles": "COC(C)(C)CCn1nc(Nc2c(C)cccc2C)c2cnc(Nc3ccc(OCCN4CCCC4)c(F)c3)nc21", "Potency": "inactive"},
      {"smiles": "CCN(C(=O)c1c(O)c2c(Cl)cccc2n(C)c1=O)c1ccccc1", "Potency": "inactive"},
      {"smiles": "CCCS(=O)(=O)N1CCCC1C(=O)Nc1ccccc1-c1ccc(OC)cc1", "note": "(stereo unspecified)", "Potency": "inconclusive: 0.794 µM [inhibitor, full curve, poor fit]"},
      {"smiles": "COc1ccccc1C(=O)N1CCN(C(=O)c2nnn3c2COC(c2ccc(C)cc2)C3)CC1", "note": "(stereo unspecified)", "Potency": "inconclusive: 39.8 µM [inhibitor, single point]"},
      {"smiles": "COCCC(=O)N1CCCN(S(C)(=O)=O)c2ccccc21", "Potency": "inactive"},
      {"smiles": "COCCC(=O)N1CC2(CCCCC2)CC1COc1ccc(OC)cc1", "note": "(stereo unspecified)", "Potency": "inconclusive: 39.8 µM [inhibitor, single point]"},
      {"smiles": "C1CCC(C(CC2CCCCN2)C2CCCCC2)CC1", "note": "(stereo unspecified)", "Potency": "inconclusive: 0.708 µM [inhibitor, full curve, poor fit]"},
      {"smiles": "COc1ccc(CN2C(=O)[C@@H]3C[C@@H](O)CN3C3(CN(Cc4ccc(F)cc4)C3)C2=O)cc1", "Potency": "inactive"},
      {"smiles": "Cn1cnc2cc(-c3ccccc3)cc(C(=O)NCc3cccnc3)c21", "Potency": "inconclusive: 50.1 µM [inhibitor, single point]"},
      {"smiles": "COc1ccc(S(=O)(=O)N2CCC(Cc3nncn3C)CC2)cc1", "Potency": "inactive"},
      {"smiles": "COc1ccccc1CN1CCc2nc(C(=O)Nc3cccc(C(F)(F)F)c3)oc2CC1", "Potency": "inconclusive: 35.5 µM [inhibitor, single point]"},
      {"smiles": "COc1ccc(NC(=O)[C@@H]2C[C@H](c3ccc(F)cc3)N(Cc3csc(C)n3)C2)cc1", "Potency": "inactive"},
      {"smiles": "O=C(C[C@@H]1CCNC[C@@H]1Cc1cc(-c2ccccc2)on1)NCc1cccs1", "Potency": "inconclusive: 12.6 µM [inhibitor, single point]"},
      {"smiles": "Cc1ccccc1-c1cnc2[nH]cc(CC(=O)NC3CCOCC3)c2c1", "Potency": "inconclusive: 0.891 µM [inhibitor, full curve, poor fit]"},
      {"smiles": "O=C(C1CCCN(c2cnn(Cc3ccccc3)c(=O)c2)C1)N1CCCC1", "note": "(stereo unspecified)", "Potency": "inactive"},
      {"smiles": "Clc1ccc2nc(N3CCC(NC4CCSC4)CC3)sc2c1", "note": "(stereo unspecified)", "Potency": "inconclusive: 39.8 µM [inhibitor, single point]"},
      {"smiles": "CCC1c2nccn2CCCN1C(=O)CCn1nc(C)cc1C", "note": "(stereo unspecified)", "Potency": "inactive"},
      {"smiles": "CCN(CC)C(=O)N1CC(Oc2ccccc2-c2nc(-c3cnccn3)no2)C1", "Potency": "inactive"},
      {"smiles": "CCc1nc(N)nc(N)c1-c1ccc(Cl)cc1", "Potency": "inconclusive: 43.2 µM [inhibitor, single point]"},
      {"smiles": "OCC1CCN(c2ccc(-c3nc(CCCc4ccccc4)no3)cn2)CC1", "Potency": "inconclusive: 39.8 µM [inhibitor, single point]"},
      {"smiles": "COc1cccc(S(=O)(=O)N2CCCN(S(=O)(=O)c3ccccc3)CCC(=O)NCC2)c1", "Potency": "inactive"},
      {"smiles": "C[S+](=O)([O-])N1CCC2(CC1)CC(Cc1ccccc1)=NO2", "Potency": "inactive"},
      {"smiles": "CN(C)Cc1cc(CC2(NCc3ccc(F)cc3)COC2)no1", "Potency": "inactive"},
      {"smiles": "COc1ccc(Nc2ccnc(N3CCC(C(=O)N4CCOCC4)CC3)n2)cc1", "Potency": "inconclusive: 35.5 µM [inhibitor, single point]"},
      {"smiles": "O=C(O)c1ccc(O)c2ncc(N3CCCN(CCc4cccc5ccccc45)CC3)cc12", "Potency": "inconclusive: 39.8 µM [inhibitor, single point]"},
      {"smiles": "CN(C(=O)c1cc2ccccc2n1C)C1CCCN(C2Cc3ccccc3C2)C1", "note": "(stereo unspecified)", "Potency": "inconclusive: 22.4 µM [inhibitor, single point]"},
      {"smiles": "COc1ccc2[nH]cc(CCNC(=O)CCC[C@H]3NC[C@@H]4C[C@H]3CN(Cc3ccccc3)C4)c2c1", "Potency": "inconclusive: 31.6 µM [inhibitor, single point]"},
      {"smiles": "COc1ccc(OC)c(NC(=O)Cn2nc3c(cc2=O)CCCCC3)c1", "Potency": "inconclusive: 39.8 µM [inhibitor, single point]"},
      {"smiles": "COc1cc(NCc2ccc3nc(N)nc(N)c3c2C)cc(OC)c1OC", "Potency": "inconclusive: 9.68 µM [inhibitor, partial curve, poor fit] and inconclusive: 39.8 µM [inhibitor, single point]"},
      {"smiles": "COC[C@@H]1CN(c2cnccn2)C[C@H]1C(=O)NCCc1cccnc1", "Potency": "inactive"},
      {"smiles": "CN1C[C@@H]2CCCN3CCC[C@@H]([C@H]23)[C@H]1CCCC(=O)NCCCN1CCc2ccccc2C1", "Potency": "inconclusive: 1.58 µM [inhibitor, partial curve, poor fit]"},
      {"smiles": "O=C(Cn1cccc1-c1nc(-c2ccccc2)no1)Nc1ccc(F)cc1", "Potency": "inconclusive: 7.08 µM [inhibitor, single point]"},
      {"smiles": "COc1ccc(Nc2cc3c(cn2)CN(C)CCN3C)cc1OC", "Potency": "inconclusive: 11.2 µM [inhibitor, single point]"},
      {"smiles": "O=C(NC1CCCCCC1)c1ccc2nc(-c3ccncc3)oc2c1", "Potency": "inconclusive: 31.6 µM [inhibitor, partial curve, poor fit]"},
      {"smiles": "CCN1CCc2[nH]cnc2C12CCN(C(=O)C1CCc3ccccc3C1)CC2", "note": "(stereo unspecified)", "Potency": "inconclusive: 0.708 µM [inhibitor, full curve, poor fit]"},
      {"smiles": "O=C(c1ccccc1F)N1CCC(Cc2nc(-c3ccccc3)n[nH]2)CC1", "Potency": "inconclusive: 35.5 µM [inhibitor, single point]"},
      {"smiles": "CC1(CNc2ccccc2)COc2ccc(C(=O)N3CC[S+](=O)([O-])CC3)cc2N1", "note": "(stereo unspecified)", "Potency": "inactive"},
      {"smiles": "COCCNC(=O)C[C@@H]1O[C@H](CNC(=O)c2cccc(F)c2)[C@@H](O)[C@H]1O", "Potency": "inconclusive: 56.2 µM [inhibitor, single point]"},
      {"smiles": "Cc1ccc(-c2nnc(C3CN(C(=O)c4sc(C)nc4C)CC34CCOCC4)o2)cc1", "note": "(stereo unspecified)", "Potency": "inconclusive: 28.2 µM [inhibitor, partial curve, poor fit]"},
      {"smiles": "O=C1NC2(Cc3ccccc31)CN(CC1CCNCC1)C2", "Potency": "inactive"},
      {"smiles": "CC1(O)CCCN(c2ncc(C(C)(C)C(=O)O)c(N3CCOCC3)n2)C1", "note": "(stereo unspecified)", "Potency": "inconclusive: 39.8 µM [inhibitor, single point]"},
      {"smiles": "CN(C)C[C@H]1C[C@H](CO)CN(C(=O)Cc2cc3c(cc2Cl)OCCO3)C1", "Potency": "inconclusive: 2.82 µM [inhibitor, partial curve, poor fit]"},
      {"smiles": "O=C(NC1CCCN(c2cc(N3CCCC3)ncn2)C1)c1ccco1", "note": "(stereo unspecified)", "Potency": "inconclusive: 22.4 µM [inhibitor, single point]"},
      {"smiles": "COc1ccc(-c2cc(N3CCC(NC(=O)c4cccc(C#N)c4)C3)n[nH]2)cc1", "note": "(stereo unspecified)", "Potency": "inconclusive: 31.6 µM [inhibitor, single point]"},
      {"smiles": "CCNC(=O)O[C@@H]1CO[C@H]2[C@@H]1OC[C@@H]2NC(=S)Nc1ccc(N(C)C)cc1", "Potency": "inconclusive: 11.2 µM [inhibitor, full curve, poor fit]"},
      {"smiles": "Cc1ccccc1Nc1cc2c(nc1-c1ccccc1)nc(C(=O)NCCN(C)C)n2C", "Potency": "inconclusive: 17.8 µM [inhibitor, partial curve, poor fit]"},
      {"smiles": "N#Cc1ccc(C(=O)NC2CCN(c3cc(-c4cccs4)[nH]n3)C2)cc1", "note": "(stereo unspecified)", "Potency": "inconclusive: 17.8 µM [inhibitor, partial curve]"},
      {"smiles": "CCn1c(C2CCCN(C(=O)c3cc(CC(C)C)nn3C)C2)nn(C)c1=O", "note": "(stereo unspecified)", "Potency": "inactive"},
      {"smiles": "CCC[C@H]1CN(C(=O)c2cccc(N3CCOCC3)c2)C[C@@H]1N", "Potency": "inconclusive: 3.98 µM [inhibitor, single point]"},
      {"smiles": "CNc1nc2c(s1)C(c1ccc(Cl)cc1)CC(=O)N2", "note": "(stereo unspecified)", "Potency": "inconclusive: 2.24 µM [inhibitor, full curve, poor fit]"},
      {"smiles": "COc1ccc(C(=O)N2CCCC(O)(CN3CCCC3)C2)cc1Cl", "note": "(stereo unspecified)", "Potency": "inconclusive: 2.51 µM [inhibitor, partial curve, poor fit]"}
    ]}
  ]
}
